Assay [1] relates to KYSE-150 cell line. In words: Antiproliferative activity against human KYSE-150 cell line measured after 7 days by celltitre-glo luminescent assay. The assay is classed as functional, cell-based. Conditions: KYSE-150, 168 h.
A further assay has as its system KYSE-520 cell line. In words: Antiproliferative activity against human KYSE520 cells measured after 7 day by celltitre-glo luminescent assay. The format is functional, cell-based. Conditions: KYSE-520, 168 h.
For the next assay, the system named is MX1. Put plainly: Antiproliferative activity against human MX1 cells measured after 7 day by celltitre-glo luminescent assay. Conditions: MX1, 168 h. The format is functional, cell-based.
The next assay deals with UACC-812. In words: Antiproliferative activity against human UACC-812 cells measured after 7 day by celltitre-glo luminescent assay. The assay is classed as functional, cell-based. Conditions: UACC-812, 168 h.
In the next assay the test system is UACC-893. In words: Antiproliferative activity against human UACC-893 cells measured after 7 day by celltitre-glo luminescent assay. The assay is classed as functional, cell-based. Conditions: UACC-893, 168 h.
The subject of a further assay is MDA-MB-231. Put plainly: Antiproliferative activity against human MDA-MB-231 cells measured after 7 day by celltitre-glo luminescent assay. The format is functional, cell-based. The settings on record: MDA-MB-231, 168 h.
Assay [2] has as its target Macrophage-stimulating protein receptor (Homo sapiens, UniProt Q04912). Put plainly: Inhibition of human MST1R by discoverX kinome scan assay.
Assay [3] addresses Myosin light chain kinase, smooth muscle (Homo sapiens, UniProt Q15746). Put plainly: Inhibition of human MYLK by discoverX kinome scan assay.
Assay [4] concerns the target Myosin light chain kinase family member 4 (Homo sapiens, UniProt Q86YV6). In words: Inhibition of human MYLK4 by discoverX kinome scan assay.
Sequence of UniProt Q86YV6 (Q86YV6 whole entry): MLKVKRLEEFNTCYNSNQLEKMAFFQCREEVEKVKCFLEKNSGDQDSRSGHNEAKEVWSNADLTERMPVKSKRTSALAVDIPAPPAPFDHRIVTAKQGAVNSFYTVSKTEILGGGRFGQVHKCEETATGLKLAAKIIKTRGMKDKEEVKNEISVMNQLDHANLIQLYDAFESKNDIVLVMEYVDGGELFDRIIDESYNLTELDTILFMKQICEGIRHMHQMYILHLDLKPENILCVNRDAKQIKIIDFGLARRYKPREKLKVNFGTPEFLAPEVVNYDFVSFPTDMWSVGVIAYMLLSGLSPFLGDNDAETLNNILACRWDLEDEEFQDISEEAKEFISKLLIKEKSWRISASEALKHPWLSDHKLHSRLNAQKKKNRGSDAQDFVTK
Assay [5] concerns the target Serine/threonine-protein kinase 38 (Homo sapiens, UniProt Q15208). In words: Inhibition of human NDR1 by discoverX kinome scan assay.
Sequence of UniProt Q15208 (Q15208 whole entry): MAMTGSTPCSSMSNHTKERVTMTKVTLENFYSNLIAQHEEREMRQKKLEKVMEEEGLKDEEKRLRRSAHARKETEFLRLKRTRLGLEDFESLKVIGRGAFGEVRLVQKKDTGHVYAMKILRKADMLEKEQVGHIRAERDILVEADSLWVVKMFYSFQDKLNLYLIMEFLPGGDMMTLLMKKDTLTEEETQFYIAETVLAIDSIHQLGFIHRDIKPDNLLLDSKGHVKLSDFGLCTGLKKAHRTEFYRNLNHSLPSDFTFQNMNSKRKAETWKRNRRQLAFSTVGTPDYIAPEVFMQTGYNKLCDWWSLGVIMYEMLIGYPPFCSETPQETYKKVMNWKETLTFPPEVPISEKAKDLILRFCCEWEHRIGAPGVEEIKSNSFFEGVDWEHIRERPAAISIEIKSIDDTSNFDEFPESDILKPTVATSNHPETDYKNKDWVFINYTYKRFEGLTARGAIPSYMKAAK
For assay [6], the target named is Serine/threonine-protein kinase Nek5 (Homo sapiens, UniProt Q6P3R8). Put plainly: Inhibition of human NEK5 by discoverX kinome scan assay.
Sequence of UniProt Q6P3R8 (Q6P3R8 whole entry, canonical isoform): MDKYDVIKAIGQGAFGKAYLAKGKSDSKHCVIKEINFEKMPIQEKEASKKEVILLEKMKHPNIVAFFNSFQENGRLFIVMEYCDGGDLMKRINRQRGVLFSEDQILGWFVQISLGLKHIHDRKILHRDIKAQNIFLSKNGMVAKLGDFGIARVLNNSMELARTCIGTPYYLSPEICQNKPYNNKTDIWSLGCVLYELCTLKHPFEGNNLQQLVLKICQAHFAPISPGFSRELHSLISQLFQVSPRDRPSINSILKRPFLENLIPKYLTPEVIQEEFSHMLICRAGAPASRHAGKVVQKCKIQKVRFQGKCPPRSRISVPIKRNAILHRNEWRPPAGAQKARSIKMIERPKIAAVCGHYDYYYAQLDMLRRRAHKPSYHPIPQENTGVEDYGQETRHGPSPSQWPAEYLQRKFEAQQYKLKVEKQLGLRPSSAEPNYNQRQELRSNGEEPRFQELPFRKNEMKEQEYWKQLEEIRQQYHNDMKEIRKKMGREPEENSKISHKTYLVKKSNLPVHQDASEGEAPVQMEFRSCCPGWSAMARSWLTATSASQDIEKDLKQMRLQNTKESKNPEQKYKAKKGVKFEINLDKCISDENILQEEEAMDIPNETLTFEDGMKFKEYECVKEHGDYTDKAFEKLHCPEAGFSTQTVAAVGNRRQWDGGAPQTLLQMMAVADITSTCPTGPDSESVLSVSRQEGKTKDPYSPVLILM
Assay [7] addresses Phosphatidylinositol 4,5-bisphosphate 3-kinase catalytic subunit delta isoform (Homo sapiens, UniProt O00329). In words: Inhibition of human PIK3CD by discoverX kinome scan assay.
Sequence of UniProt O00329 (O00329 whole entry, canonical isoform): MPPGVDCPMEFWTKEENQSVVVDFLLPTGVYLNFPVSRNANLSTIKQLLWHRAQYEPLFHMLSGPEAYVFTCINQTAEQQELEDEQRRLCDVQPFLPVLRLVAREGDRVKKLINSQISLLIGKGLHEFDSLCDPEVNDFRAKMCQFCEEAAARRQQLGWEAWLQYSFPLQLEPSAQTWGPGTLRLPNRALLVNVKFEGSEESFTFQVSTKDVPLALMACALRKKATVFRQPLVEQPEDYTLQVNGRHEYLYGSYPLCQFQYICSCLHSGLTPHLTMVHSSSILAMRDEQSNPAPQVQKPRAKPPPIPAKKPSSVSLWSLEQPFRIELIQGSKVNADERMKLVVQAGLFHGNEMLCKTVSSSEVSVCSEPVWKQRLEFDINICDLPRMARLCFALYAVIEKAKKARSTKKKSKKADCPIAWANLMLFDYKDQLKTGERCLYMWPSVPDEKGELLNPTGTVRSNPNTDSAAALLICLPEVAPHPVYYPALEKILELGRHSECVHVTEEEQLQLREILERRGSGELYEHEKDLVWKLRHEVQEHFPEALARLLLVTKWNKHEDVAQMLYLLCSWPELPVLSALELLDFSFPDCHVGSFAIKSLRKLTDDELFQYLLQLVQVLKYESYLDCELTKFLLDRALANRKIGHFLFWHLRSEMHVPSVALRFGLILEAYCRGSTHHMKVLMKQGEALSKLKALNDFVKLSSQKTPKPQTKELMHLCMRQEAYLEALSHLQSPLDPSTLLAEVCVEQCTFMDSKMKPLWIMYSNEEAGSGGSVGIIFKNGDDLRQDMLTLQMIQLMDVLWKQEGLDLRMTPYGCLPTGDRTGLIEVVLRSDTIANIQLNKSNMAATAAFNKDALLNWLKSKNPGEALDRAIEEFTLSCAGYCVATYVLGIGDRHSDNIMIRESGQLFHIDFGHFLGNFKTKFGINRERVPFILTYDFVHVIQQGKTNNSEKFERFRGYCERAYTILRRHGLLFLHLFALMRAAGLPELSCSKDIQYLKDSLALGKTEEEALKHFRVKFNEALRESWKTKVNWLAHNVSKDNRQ
Assay [8] addresses Phosphatidylinositol 4,5-bisphosphate 3-kinase catalytic subunit gamma isoform (Homo sapiens, UniProt P48736). Put plainly: Inhibition of human PIK3CG by discoverX kinome scan assay.
Sequence of UniProt P48736 (P48736 whole entry): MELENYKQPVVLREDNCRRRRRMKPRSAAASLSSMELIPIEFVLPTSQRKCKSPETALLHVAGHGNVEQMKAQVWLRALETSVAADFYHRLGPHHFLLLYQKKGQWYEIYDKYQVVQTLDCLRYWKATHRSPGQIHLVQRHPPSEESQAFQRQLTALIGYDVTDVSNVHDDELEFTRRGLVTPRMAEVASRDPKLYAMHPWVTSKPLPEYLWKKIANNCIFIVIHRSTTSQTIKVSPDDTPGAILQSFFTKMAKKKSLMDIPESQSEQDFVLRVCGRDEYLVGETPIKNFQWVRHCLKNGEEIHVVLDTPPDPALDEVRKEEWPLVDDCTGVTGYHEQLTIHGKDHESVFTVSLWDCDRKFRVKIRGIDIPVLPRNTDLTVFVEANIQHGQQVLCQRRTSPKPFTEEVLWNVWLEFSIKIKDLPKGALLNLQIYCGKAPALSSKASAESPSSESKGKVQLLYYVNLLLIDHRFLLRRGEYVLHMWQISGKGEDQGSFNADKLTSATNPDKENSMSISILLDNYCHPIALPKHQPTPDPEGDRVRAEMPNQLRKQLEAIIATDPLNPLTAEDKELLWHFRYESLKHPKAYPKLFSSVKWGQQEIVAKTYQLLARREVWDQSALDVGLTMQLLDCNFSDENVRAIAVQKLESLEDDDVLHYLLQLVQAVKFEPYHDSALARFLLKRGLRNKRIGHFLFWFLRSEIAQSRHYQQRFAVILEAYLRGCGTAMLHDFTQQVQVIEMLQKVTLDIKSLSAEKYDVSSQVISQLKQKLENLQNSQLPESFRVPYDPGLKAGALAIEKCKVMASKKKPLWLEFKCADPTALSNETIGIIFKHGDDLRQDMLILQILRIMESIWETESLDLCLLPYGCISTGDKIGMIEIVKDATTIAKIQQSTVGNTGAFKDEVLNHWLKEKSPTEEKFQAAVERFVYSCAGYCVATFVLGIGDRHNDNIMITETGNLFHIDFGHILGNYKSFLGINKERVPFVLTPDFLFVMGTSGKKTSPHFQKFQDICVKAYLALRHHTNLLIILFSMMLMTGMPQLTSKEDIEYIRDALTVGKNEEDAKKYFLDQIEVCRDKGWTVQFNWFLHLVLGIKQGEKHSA
The target in assay [9] is Serine/threonine-protein kinase N1 (Homo sapiens, UniProt Q16512). In words: Inhibition of human PKN1 by discoverX kinome scan assay.
Assay [10] concerns the target Serine/threonine-protein kinase D3 (Homo sapiens, UniProt O94806). In words: Inhibition of PRKD3 (unknown origin) by discoverX kinome scan assay.
Sequence of UniProt O94806 (O94806 whole entry): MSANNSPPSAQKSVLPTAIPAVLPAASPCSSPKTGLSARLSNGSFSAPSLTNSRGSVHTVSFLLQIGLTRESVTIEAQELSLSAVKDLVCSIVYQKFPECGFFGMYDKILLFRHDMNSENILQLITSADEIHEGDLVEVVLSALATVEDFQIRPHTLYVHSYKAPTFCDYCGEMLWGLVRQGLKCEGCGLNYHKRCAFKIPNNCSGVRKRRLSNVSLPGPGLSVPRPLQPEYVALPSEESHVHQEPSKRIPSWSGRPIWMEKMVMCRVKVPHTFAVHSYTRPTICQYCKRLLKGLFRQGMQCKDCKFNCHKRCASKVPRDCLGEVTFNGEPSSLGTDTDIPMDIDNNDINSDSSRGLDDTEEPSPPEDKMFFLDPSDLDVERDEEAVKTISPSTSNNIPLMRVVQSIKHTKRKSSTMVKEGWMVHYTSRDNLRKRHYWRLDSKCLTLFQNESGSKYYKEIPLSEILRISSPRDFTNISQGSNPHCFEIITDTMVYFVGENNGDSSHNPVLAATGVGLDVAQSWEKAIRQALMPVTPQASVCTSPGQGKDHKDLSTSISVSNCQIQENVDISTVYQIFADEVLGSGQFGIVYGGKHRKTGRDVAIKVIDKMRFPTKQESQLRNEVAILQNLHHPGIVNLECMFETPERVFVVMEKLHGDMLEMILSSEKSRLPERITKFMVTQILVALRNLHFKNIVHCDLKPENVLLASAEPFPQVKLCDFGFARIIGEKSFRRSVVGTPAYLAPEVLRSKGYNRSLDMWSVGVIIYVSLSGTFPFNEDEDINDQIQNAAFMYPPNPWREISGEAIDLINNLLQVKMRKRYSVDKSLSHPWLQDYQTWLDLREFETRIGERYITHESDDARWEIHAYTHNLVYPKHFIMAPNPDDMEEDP
Assay [11] in a line: Inhibition of human FXR by Eurofins-CEREP pharmacology platform analysis.
Assay [12] concerns KYSE-150 cell line. Put plainly: Effect on cellular post-translational modifications on histone H3 (TKQTAR) - K4 di-methylated in human KYSE-150 cells assessed as relative abundance at 5 by mass spectrometric analysis (reference value: 2.6+/-0.6). The format is functional. The settings on record: dose 5 µM. The procedure, abridged: (§1)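 Histones acid-extracted from SMYD2-overexpressing KYSE-150 cells treated with vehicle or 5 μM inhibitor. Samples derivatized with propionic anhydride, then trypsin-digested for 6 h at 37 °C. Each modification's relative abundance on a peptide sequence, as a percentage, was quantified from MS and MS/MS spectra and compared with vehicle.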

In assay [13] the test system is KYSE-150 cell line. Put plainly: Effect on cellular post-translational modifications on histone H3 (TKQTAR) - K4 tri-methylated in human KYSE-150 cells assessed as relative abundance at 5 by mass spectrometric analysis (reference value: 1.4+/-0.3No_unit). Conditions: dose 5 µM. The format is functional. The procedure, abridged:
as §1

Assay [14] deals with KYSE-150 cell line. In words: Effect on cellular post-translational modifications on histone H3 (TKQTAR) - K4 unmethylated in human KYSE-150 cells assessed as fold change by mass spectrometric analysis. The format is functional. In outline:
as §1

The subject of assay [15] is KYSE-150 cell line. Put plainly: Effect on cellular post-translational modifications on histone H3 (TKQTAR) - K4 tri-methylated in human KYSE-150 cells assessed as fold change by mass spectrometric analysis. The assay is classed as functional. In outline: as §1
Assay [16] concerns KYSE-150 cell line. Put plainly: Effect on cellular post-translational modifications on histone H3 (GKGGKGLGKGGAKR) - K5 unmethylated, K8 unmethylated, K12 acetylated, K16 unmethylated in human KYSE-150 cells assessed as fold change by mass spectrometric analysis. The assay is classed as functional.
The test system of assay [17] is KYSE-150 cell line. Put plainly: Effect on cellular post-translational modifications on histone H4 (KVLR) - K20 trimethylated in human KYSE-150 cells assessed as fold difference by mass spectrometry relative to vehicle treated control. The assay is classed as functional. In outline:
as §1

As a reminder, the IC50 is the concentration at which inhibition is half-maximal. Take `Cc1cn(CCN2CCN(c3ccccc3-c3cc(C#N)cc(C(=O)NCCCN4CCCC4)c3)CC2)c2ccccc12`: the IC50 in the assay with KYSE-150 cell line [1], with KYSE-520 cell line, with MX1, in the assay with UACC-812, with UACC-893 and in the assay with MDA-MB-231 was 300 nM in each case. In addition, the concentration for half-maximal inhibition (IC50) in assay [2], in [3], in assay [4], in [5], in assay [6] and in assay [7] was above 20000 nM throughout. Further, the IC50 in assay [8] was above 20000 nM; in [9], above 20000 nM; in [10], above 20000 nM; in [11], above 10000 nM. Further, the Activity with KYSE-150 cell line [12] was 2.1; in the assay on KYSE-150 cell line [13], 1. The “fold change (FC)” value in the assay on KYSE-150 cell line [14] is 1; in the assay on KYSE-150 cell line [15], 1.3; in the assay with KYSE-150 cell line [16], 1.11; in the assay on KYSE-150 cell line [17], 0.97.

The record behind these values is ChEMBL document CHEMBL5674866 (J Biol Chem, 2015).
